The campaign covered roughly 360,000 compounds. About 16,000 (4.4%) were called active. The inconclusive results got no clear call from the source; some entries with a clear call stand among them for comparison. Calls follow the shape of the dose curve; as a rule, active = well fitted inhibition curve with a large enough effect; inconclusive = small, poorly fitted or top-dose-only effect; inactive = no such curve, though single readings can be large or run the other way. Where the call is inconclusive, the potency comes from a doubtful curve fit. The source holds several records for some structures; these can differ, active in one and inactive in another.
Biological target: Bromodomain adjacent to zinc finger domain protein 2B (Homo sapiens) (UniProt Q9UIF8)
Test: qHTS Assay for Inhibitors of BAZ2B; also: nearly all actives have a fitted effect of over 60% in size
Details: AlphaScreen BAZ2B-H3K14Ac peptide displacement; activity change, negative = inhibition: at 114 µM (top of the series) unless noted
Summary of the method: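 BAZ2B (50 nM) with biotin-H3(5-23)K14Ac peptide (50 nM) in PBS pH 7.4, 0.01% Tween-20, preformed 30 min, then compound 30 min at room temperature; top concentration 110uM. AlphaScreen streptavidin donor/nickel chelate acceptor beads (10 ug/mL final), 20 min dark, signal read.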
% is scaled to controls: 0 for no effect and ±100 for the full control effect; potency is read from the fitted curve at half-maximal effect; tags tell the direction and shape of the fitted curve.

Chain of UniProt Q9UIF8 (Q9UIF8 whole entry, looked up, the tested form may be a part): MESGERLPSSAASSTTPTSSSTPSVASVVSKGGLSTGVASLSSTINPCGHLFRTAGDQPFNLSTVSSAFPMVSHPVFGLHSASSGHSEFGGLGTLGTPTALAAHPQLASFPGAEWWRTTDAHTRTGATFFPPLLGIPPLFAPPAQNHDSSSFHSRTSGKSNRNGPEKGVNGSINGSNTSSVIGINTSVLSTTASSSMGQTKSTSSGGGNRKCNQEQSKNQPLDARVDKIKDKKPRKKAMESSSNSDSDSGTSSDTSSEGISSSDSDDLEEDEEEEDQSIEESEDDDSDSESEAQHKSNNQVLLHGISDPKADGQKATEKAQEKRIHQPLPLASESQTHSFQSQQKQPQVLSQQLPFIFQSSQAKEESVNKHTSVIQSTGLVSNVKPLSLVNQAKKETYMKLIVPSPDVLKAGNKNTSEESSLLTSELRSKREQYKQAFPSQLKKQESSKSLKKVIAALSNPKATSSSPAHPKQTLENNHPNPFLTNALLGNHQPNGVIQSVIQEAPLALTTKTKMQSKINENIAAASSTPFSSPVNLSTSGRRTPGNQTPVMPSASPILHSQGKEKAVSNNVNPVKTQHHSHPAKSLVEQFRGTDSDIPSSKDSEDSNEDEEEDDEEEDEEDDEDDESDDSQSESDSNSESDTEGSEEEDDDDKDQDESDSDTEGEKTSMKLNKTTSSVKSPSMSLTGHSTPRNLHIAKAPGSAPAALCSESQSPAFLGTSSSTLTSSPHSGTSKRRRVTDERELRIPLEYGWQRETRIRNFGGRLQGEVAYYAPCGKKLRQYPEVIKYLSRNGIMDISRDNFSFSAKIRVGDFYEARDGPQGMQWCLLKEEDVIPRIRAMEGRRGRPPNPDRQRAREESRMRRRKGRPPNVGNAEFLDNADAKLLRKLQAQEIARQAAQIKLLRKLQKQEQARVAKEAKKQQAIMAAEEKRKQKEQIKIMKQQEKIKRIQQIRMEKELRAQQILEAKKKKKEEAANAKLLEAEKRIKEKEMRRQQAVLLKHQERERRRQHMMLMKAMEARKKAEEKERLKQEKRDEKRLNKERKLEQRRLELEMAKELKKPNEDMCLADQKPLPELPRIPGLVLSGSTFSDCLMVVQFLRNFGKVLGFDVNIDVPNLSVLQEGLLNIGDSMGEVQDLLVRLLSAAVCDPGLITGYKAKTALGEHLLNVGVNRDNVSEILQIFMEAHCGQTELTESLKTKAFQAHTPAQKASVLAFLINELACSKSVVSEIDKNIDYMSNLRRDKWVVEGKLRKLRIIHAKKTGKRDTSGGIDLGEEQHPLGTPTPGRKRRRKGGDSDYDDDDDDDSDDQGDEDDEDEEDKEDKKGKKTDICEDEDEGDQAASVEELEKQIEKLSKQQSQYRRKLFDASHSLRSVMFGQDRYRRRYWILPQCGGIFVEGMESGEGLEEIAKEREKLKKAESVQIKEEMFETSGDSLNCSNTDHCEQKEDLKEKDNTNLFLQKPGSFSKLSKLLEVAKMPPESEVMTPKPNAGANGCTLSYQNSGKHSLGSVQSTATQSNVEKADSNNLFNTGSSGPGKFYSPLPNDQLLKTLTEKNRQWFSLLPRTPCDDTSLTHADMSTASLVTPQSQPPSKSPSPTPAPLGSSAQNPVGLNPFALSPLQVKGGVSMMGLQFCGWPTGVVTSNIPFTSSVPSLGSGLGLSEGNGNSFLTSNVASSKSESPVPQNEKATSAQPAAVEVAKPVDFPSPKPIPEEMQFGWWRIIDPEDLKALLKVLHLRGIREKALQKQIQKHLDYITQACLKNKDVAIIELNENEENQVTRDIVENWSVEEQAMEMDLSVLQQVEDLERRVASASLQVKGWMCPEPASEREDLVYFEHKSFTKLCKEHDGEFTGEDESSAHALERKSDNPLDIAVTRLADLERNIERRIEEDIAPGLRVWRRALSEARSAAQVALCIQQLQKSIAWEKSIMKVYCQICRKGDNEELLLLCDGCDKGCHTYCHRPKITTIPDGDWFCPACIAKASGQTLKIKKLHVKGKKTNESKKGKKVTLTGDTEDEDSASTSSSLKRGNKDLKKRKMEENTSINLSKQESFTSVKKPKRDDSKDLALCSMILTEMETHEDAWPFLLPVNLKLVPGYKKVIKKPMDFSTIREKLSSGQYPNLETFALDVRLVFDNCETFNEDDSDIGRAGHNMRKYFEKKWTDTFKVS

| SMILES | Potency | activity change, negative = inhibition |
| --- | --- | --- |
| CCCC[n+]1ccn(C2=C([O-])c3ccccc3C(=O)/C2=N\S(=O)(=O)c2ccc(Br)cc2)c1 | active: 89.1 µM | – |
| Cn1c(C(=O)N2CCN(c3cccc(C(F)(F)F)c3)CC2)cc2sccc21 | inconclusive: 31.6 µM [inhibitor, full curve] | – |
| CN=c1scc(-c2cccs2)n1/N=C/c1ccc(O)c(O)c1O | active: 25.1 µM | – |
| C=CCc1ccccc1OCC(O)CNC(C)C (stereo not given) | – | inactive: -12.5% |
| CC(Sc1nnc(-c2ccco2)o1)C(=O)NCCC1=CCCCC1 (stereo not given) | – | inactive: -1.77% |
| CCc1nnc(NC(=O)c2cc(-c3cccnc3)nc3ccccc23)s1 | inconclusive: 89.1 µM [inhibitor, single point] | – |
| Cc1ccccc1OCC(=O)NC(=S)Nc1ccc(Br)c(C)n1 | inconclusive: 89.1 µM [inhibitor, single point] | – |
| O=C(Oc1ccc(Br)cc1C(=S)N1CCOCC1)c1ccc([N+](=O)[O-])cc1[N+](=O)[O-] | inconclusive: 7.94 µM [inhibitor, full curve] | – |
| O=C(Cc1ccccc1)NNC(=O)Cc1ccccc1 | – | inactive: -3.13% |
| COc1ccc(C2c3c(oc4ccccc4c3=O)C(=O)N2c2nc(C)c(C)s2)cc1 (stereo not given) | inconclusive: 89.1 µM [inhibitor, single point] | – |
| COc1cc(/C=C2/C(=N)N3C(=NC2=O)SN=C3S(=O)(=O)C(C)C)ccc1OS(=O)(=O)c1ccccc1 | inconclusive: 50.1 µM [inhibitor, partial curve] | – |
| CC(=O)NC1(C(F)(F)F)NC(=O)N(CCc2ccccc2)C1=O (stereo not given) | – | inactive: -4.44% |
| O=C(NN1C(=O)/C(=C/c2ccc(O)c([N+](=O)[O-])c2)SC1=S)c1ccccc1Cl | active: 35.5 µM | – |
| OC1CC(c2ccco2)NC2(CCCCC2)C1 (stereo not given) | inconclusive: 79.4 µM [inhibitor, single point] | – |
| Oc1c(Cl)cc(Cl)cc1Sc1cc(Cl)cc(Cl)c1O | active: 50.1 µM | – |
| N#Cc1cc2c(nc1SCC(=O)N1CCCCC1)CCCCC2 | – | inactive: 10.4% |
| COCCn1nnnc1C(CC(C)C)N1CCN(C(=O)c2ccco2)CC1 (stereo not given) | active: 79.4 µM | – |
| O=C1[C@H]2[C@@H](C(=O)N1c1cccc3ccccc13)C1(C(=O)c3ccccc3C1=O)N1CCC[C@@H]21 | inconclusive: 44.7 µM [inhibitor, partial curve] | – |
| CCOC(=O)Cc1cc(=O)n2[nH]c(C)cc2n1 | inconclusive: 89.1 µM [inhibitor, single point] | – |
| Fc1ccc2[nH]c3c(c2c1)CN(C(=S)NCc1ccccc1)CC3 | active: 56.2 µM | – |
| COC(=O)c1c(N(S(C)(=O)=O)S(C)(=O)=O)sc2c1CCN(c1ncc(C(F)(F)F)cc1Cl)C2 | – | inactive: -5.89% |
| O=C1c2ccc3c4c(ccc(c24)C(=O)N1Cc1cccnc1)C(=O)N(Cc1cccnc1)C3=O | inconclusive: 39.8 µM [inhibitor, single point] | – |
| N#C/C(=C/c1ccc(OCc2ccc(C(=O)O)cc2)cc1)C(=O)Nc1ccccc1 | active: 79.4 µM | – |

| SMILES | Potency | activity change, negative = inhibition |
| --- | --- | --- |
| COc1ccc(-n2c(=S)[nH]c3ccccc32)cc1 | inconclusive: 11.2 µM [inhibitor, full curve] | – |
| COc1cccc(CNC(=O)CCc2ccc(OC)c(OC)c2)c1 | inconclusive: 89.1 µM [inhibitor, single point] | – |
| c1ccc(-n2cccc2CNC2CCCCC2)cc1 | inconclusive: 50.1 µM [inhibitor, partial curve] | – |
| Cn1c(CCN2CCCCCC2)nc2cc(NC(=O)Nc3ccccc3)ccc21 | inconclusive: 89.1 µM [inhibitor, single point] | – |
| C#CCOCCOCCOCCNc1nc(N2CCN(C(=O)[C@H](CCCCN)n3cc(CCCC)nn3)CC2)nc(N2CCN(C(=O)[C@H](CCCCN)n3cc(CCCC)nn3)CC2)n1 | inconclusive: 89.1 µM [inhibitor, single point] | – |
| O=C(NCc1ccc(F)cc1)c1ccc(N2CCc3ccccc32)c([N+](=O)[O-])c1 | active: 7.08 µM | – |
| COc1ccc(-c2cn3c(n2)sc2cc(C(=O)N4CCCCC4)ccc23)cc1 | – | inactive: -17.3% |
| COC(=O)C(CC(=O)O)NCc1ccco1 (stereo not given) | inconclusive: 89.1 µM [inhibitor, single point] | – |
| CCOc1cc(-c2nnc(SCC(=O)NCCCOC)nc2-c2ccc(OC)c(OCC)c2)ccc1OC | inconclusive: 89.1 µM [inhibitor, single point] | – |
| CCC(=O)Nc1nnc(S(=O)(=O)N2CCCCCC2)s1 | active: 7.08 µM | – |
| CCOC(=O)c1cc2c(=O)n3ccccc3nc2n(Cc2ccco2)c1=NC(=O)c1ccc(OC)cc1OC | inconclusive: 56.2 µM [inhibitor, partial curve] | – |
| CCn1c(C)nc2cc(N)ccc21 | inconclusive: 79.4 µM [inhibitor, single point] | – |
| CN(C)/N=C/c1cc(Cl)cc([N+](=O)[O-])c1O | active: 44.7 µM | – |
| COc1ccc(NS(=O)(=O)c2cc(NC(=O)CCNC(C)=O)ccc2N2CCCCC2)cc1 | – | inactive: -27% |
| COc1ccc2c(c1)[C@H]1[C@H](CO2)[C@H](c2ccccc2)[C@]2(C)C(=O)Nc3ccccc3C(=O)N12 | inconclusive: 89.1 µM [inhibitor, single point] | – |
| Cc1ccc(NS(=O)(=O)c2ccc(C(=O)NCCCN3CCCC3=O)cc2)cc1 | – | inactive: 5.11% |
| COc1cc2[nH]c(=O)n(CCC(=O)N3CCN(Cc4ccccc4)CC3)c(=O)c2cc1OC | inconclusive: 89.1 µM [inhibitor, single point] | – |
| CCOc1ccc(C(=O)NC(=S)Nc2ccc(N3CCC(C)CC3)cc2)cc1[N+](=O)[O-] | inconclusive: 3.55 µM [inhibitor, full curve] | – |
| CCC(C)c1ccccc1OCCCN(C)Cc1ccccc1 (stereo not given) | inconclusive: 89.1 µM [inhibitor, single point] | – |
| N#Cc1nc(-c2ccco2)oc1NCCCN1CCOCC1 | – | inactive: 7.91% |
| CCOC(=O)N1CCN(C(=O)c2ccc(OC)c(OC)c2)CC1 | – | inactive: -30.4% |
| O=C1c2[nH]nc(-c3ccccc3O)c2C(c2ccc(F)cc2)N1CC1CCCO1 (stereo not given) | inconclusive: 89.1 µM [inhibitor, single point] | – |

Source: PubChem BioAssay AID504333 (National Center for Advancing Translational Sciences (NCATS), 2011)
